According to paper PMC4336329 (PLoS ONE, 2015):
Hit rate of the full screen: of about 310,000 compounds, about 2,200 (0.71%) showed an effect of 50% or more. The effect is printed as a negative number. The list shows a part of the results.

molecular target: human ether-à-go-go-related gene (hERG) potassium channel (human, UniProt Q12809); assay: primary screen, population patch clamp on CHO cells stably expressing hERG
Sequence (Q12809 whole entry, looked up): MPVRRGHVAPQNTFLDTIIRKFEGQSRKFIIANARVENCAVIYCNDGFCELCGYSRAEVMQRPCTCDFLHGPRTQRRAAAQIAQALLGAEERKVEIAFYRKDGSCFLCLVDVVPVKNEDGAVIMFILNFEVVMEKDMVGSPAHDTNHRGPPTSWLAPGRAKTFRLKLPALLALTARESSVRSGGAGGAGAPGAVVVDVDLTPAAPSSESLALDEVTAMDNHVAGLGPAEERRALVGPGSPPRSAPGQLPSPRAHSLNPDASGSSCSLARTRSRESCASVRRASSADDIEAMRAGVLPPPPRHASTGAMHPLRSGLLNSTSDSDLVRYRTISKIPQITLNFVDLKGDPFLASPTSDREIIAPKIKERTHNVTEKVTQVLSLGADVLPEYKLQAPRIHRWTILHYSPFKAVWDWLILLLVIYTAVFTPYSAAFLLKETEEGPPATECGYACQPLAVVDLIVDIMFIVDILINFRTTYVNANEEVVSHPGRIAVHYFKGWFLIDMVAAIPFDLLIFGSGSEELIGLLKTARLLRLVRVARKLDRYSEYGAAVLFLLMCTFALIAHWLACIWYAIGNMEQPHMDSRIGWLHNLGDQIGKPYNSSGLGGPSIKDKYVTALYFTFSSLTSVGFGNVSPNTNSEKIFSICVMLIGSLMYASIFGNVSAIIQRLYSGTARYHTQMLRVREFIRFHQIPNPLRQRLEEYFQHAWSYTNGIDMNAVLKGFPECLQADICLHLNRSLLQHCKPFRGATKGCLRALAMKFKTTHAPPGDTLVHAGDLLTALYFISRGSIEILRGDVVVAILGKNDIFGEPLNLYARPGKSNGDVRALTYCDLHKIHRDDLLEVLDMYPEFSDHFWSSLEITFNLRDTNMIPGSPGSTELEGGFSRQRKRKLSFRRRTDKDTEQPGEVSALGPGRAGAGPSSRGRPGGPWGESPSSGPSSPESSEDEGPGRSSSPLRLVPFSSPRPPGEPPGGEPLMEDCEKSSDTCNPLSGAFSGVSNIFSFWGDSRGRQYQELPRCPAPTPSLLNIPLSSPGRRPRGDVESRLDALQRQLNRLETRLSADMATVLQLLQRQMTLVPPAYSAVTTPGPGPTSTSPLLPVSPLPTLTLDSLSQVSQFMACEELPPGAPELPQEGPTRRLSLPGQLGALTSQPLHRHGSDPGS

Compound | hERG current change (%, negative = inhibition) at 1uM [%]
COc1ccccc1CCNCc1cccc(C(F)(F)F)c1.O=C(O)C(=O)O | 12.3
COc1ccc(/C=C(/NC(=O)c2ccccc2)C(=O)N2CCCC2)cc1 | 6.1
COc1cccc(CSc2nc3ccccc3cc2C=O)c1 | 6.21
COc1cccc(C2C(C#N)=C(N)N(N(C)C)C3=C2C(=O)CCC3)c1OC (stereo not drawn) | 16.4
CCC(C)c1ccc(NC(=O)C2CCN(c3ncccn3)CC2)cc1 (stereo not drawn) | 13
C/C(=N\NC(=O)c1ccncc1)c1cccc(NC(=O)c2ccc(C(C)(C)C)cc2)c1 | -9.64
CC(C(=O)Nc1cccc(Br)c1)c1ccc([N+](=O)[O-])cc1 (stereo not drawn) | 6.23
Cc1ccc(NC(=O)COC(=O)CCc2c[nH]c3ccccc23)c(C)c1 | 7.61
O=C(COc1ccc2c(-c3ccccc3)cc(=O)oc2c1)NC1CCS(=O)(=O)C1 (stereo not drawn) | 10.9
CCc1ccc2nc(SCC(=O)Nc3nnc(C)s3)c(C)cc2c1 | 11.5
CC(=O)c1ccc(NC(=S)NC(=O)Cc2ccc(Cl)cc2)cc1 | 17.5
CCN1C(=O)c2cccc3c(S(=O)(=O)NC(Cc4ccccc4)C(=O)O)ccc1c23 (stereo not drawn) | 13.7
O=C(CSc1nnc(SCc2ccccc2)s1)NNC(=S)Nc1ccccc1 | 5.03
CC1Cc2ccccc2N1C(=O)CSc1nc2ccccc2s1 (stereo not drawn) | 4.97
Cc1occc1C(=O)N/N=C/c1cnn(C)c1C | -6.78
O=C(CSc1ccc2ccccc2c1)Nc1ccc(S(=O)(=O)Nc2nccs2)cc1 | 10.8
CCSc1nnc(N)s1 | 9.83
COC(=O)CCC(=O)N(CCN(C(=O)CCC(=O)OC)c1ccccc1)c1ccccc1 | 12.8
CC1(c2nnc(-c3ccncc3)o2)CC(c2ccc(Cl)cc2)=NO1 (stereo not drawn) | -8.04
O=C1Cc2ccccc2C(c2ccc(Cl)cc2)N1 (stereo not drawn) | 4.56
COc1cc(Cl)ccc1OCc1cc(C(=O)N2CCC(N(C)C)C2)no1 (stereo not drawn) | 4.46
COc1cc(NC(=O)CN2CCN(c3ccccc3F)CC2)c(C)cc1[N+](=O)[O-] | 17.4

Compound | hERG current change (%, negative = inhibition) at 1uM [%]
COc1cccc(NC(=O)COC(=O)CCCC2=NS(=O)(=O)c3ccccc3N2)c1 | 10.8
CN(C)CCCN(C(=O)c1ccc([N+](=O)[O-])o1)c1nc2cc3c(cc2s1)OCO3.Cl | -2.9
O=C(Cc1ccc([N+](=O)[O-])cc1)N1N=C(C2CC2)CC1(O)C(F)(F)F (stereo not drawn) | -0.373
O=C(O)CC1S/C(=N/N=C/c2ccc(-c3ccccc3[N+](=O)[O-])o2)NC1=O (stereo not drawn) | 4.31
CCCc1cc(C(=O)OC)c(NC(=O)c2cc(C)on2)s1 | -2.95
Cc1nc(NC(=O)C2CCCCC2)sc1C | -8.47
CN(C)c1ccc(C2Nc3ccccc3C(=O)N2CCCN2CCOCC2)cc1 (stereo not drawn) | 7.31
COc1ccc(S(=O)(=O)Cc2ccc(C(=O)NCc3ccccc3OC)o2)cc1 | -3.7
COc1cccc(CNCc2ccccc2OC)c1.O=C(O)C(=O)O | 7.88
O=C(NCc1ccccc1F)C1CCCN(C(=O)NC2CCCCC2)C1 (stereo not drawn) | 1.92
Cn1c(SCC(=O)c2ccccc2)ncc(C(=O)Nc2ccccc2)c1=O | 9.47
O=C(O)C(Cc1c[nH]c2ccccc12)NS(=O)(=O)c1ccc2ccccc2c1 (stereo not drawn) | 4.08
CCn1c(Cc2ccccc2)nnc1SCC(=O)Nc1ccc(C)cc1 | 6.96
CCCCOc1ccc(N=Nc2ccc(N)nc2N)cn1 | 7.91
O=C(CCC(=O)N1CCN(C2CCCCC2)CC1)Nc1nnc(C(F)(F)F)s1 | 3.5
O=C(O)CCSc1nnc(COc2cccc3cccnc23)n1-c1ccccc1 | 11.5
CC(C)CCNC(=O)C1CCC(=O)N1C(C)C (stereo not drawn) | 13.4
COCCCNC(=S)N1CCN(S(C)(=O)=O)CC1 | 16.9
O=C(Nc1ccccc1)c1ccc2c(c1)OCO2 | 9.2
Brc1cccc(C=Nc2cccc3ncccc23)c1 | 12.4
CCOC(=O)/C(C(N)=NCc1ccco1)=C(/O)c1ccccc1 | 4.18
CC(C)n1c(CN(C)c2ccccc2)nc2ccccc21.Cl | 13.4

Compound | hERG current change (%, negative = inhibition) at 1uM [%]
CCOc1ccccc1NC(=O)CCN1CCN(S(=O)(=O)c2ccc(Br)cc2)CC1 | 6.86
CC(C)[C@H](NC(=O)[C@@H]1Cc2c([nH]c3ccccc23)C2c3ccccc3C(=O)N21)C(=O)NCC1CCCO1 (stereo partly drawn) | 9.87
Cc1ccc2c(CC(=O)OCc3nc(N)nc(Nc4ccccc4C)n3)coc2c1 | 15.8
CC(=O)N1CC(C)c2scc(C)[n+]2-c2ccccc21.[Cl-] (stereo not drawn) | 6.58
CCCOC(=O)C1C2C=CC(C3CC23)C1C(=O)OCC(=O)c1ccccc1 (stereo not drawn) | 10.9
Cc1[nH]n(-c2ccc([N+](=O)[O-])cc2)c(=O)c1/C=N/N1CCOCC1 | 0.312
CCOC(=O)c1c[nH]c2c(C(=O)c3ccccc3)cc(Cl)cc2c1=O | 4.65
CCc1ccc(-c2cc(C)no2)cc1S(=O)(=O)NCc1ccco1 | 7.6
CC1(C)CC2CC(C)(CN2C(=O)C23CCC(C)(C(=O)O2)C3(C)C)C1 (stereo not drawn) | 4.92
CCOc1ccccc1N1CCN(Cc2ccc(OC)c(OC)c2OC)CC1 | -14.3
O=C(CNC(=O)c1ccc(Cl)cc1Cl)OCn1nnc2ccccc2c1=O | 16.5
Cc1ccc2nc(SCC(=O)NC(=O)NCc3ccco3)[nH]c2c1 | -0.35
CC1(C)CC(=O)C(C=NCCN2CCN(C(=O)C34CC5CC(CC(C5)C3)C4)CC2)=C(O)C1 | 13.5
Cc1nc(CSc2nnc3scc(-c4ccccc4)n23)cs1 | 13.5
Cc1nonc1C(=O)N1CCCC(N2CCN(c3ccc(F)cc3)CC2)C1 (stereo not drawn) | -17.7
O=C(Nc1ccc([N+](=O)[O-])cc1)Nc1nc(-c2ccc(Cl)s2)cs1 | 9.34
CCc1cc2c(=O)n(-c3ccccc3)cnc2s1 | 8.82
O=C(NCC(c1ccco1)N1CCc2ccccc21)c1ccccc1Br (stereo not drawn) | 2.86
COc1ccc(OC)c(NC(=O)NNC(=O)COc2ccc(-c3ccccc3)cc2)c1 | 2.35
Cc1ccc(/C=[N+](/C)[O-])cc1 | 11.9
O=c1ccn(Cc2ccccc2Cl)cc1 | 15.4
CC(C)CNC(=O)C1CCN(CC2CCCCC2)CC1.O=C(O)C(=O)O | 16.6

Compound | hERG current change (%, negative = inhibition) at 1uM [%]
CCc1nc(N2CCN(CC(=O)NCC3CCCO3)CC2)c(C#N)c2c1COC(C)(C)C2 (stereo not drawn) | 2.32
CC(C)(C)NC(=O)c1ccc2c(c1)N(CC(=O)N1CCN(c3ccccc3F)CC1)C(=O)C(C)(C)O2 | 2.25
O=C(N=C1SC2CS(=O)(=O)CC2N1c1ccc(Cl)cc1)C1CCCO1 (stereo not drawn) | 13
Cc1cc(C(C)(C)CC(C)(C)C)ccc1OCCOCC[N+](C)(C)Cc1ccccc1.[Cl-] | -62
COc1cccc(C2C(C#N)=C(N)SC(c3ccccc3)C2[N+](=O)[O-])c1 (stereo not drawn) | 7.53
O=C(NNc1nc2cc3c(cc2s1)OCO3)c1ccc(F)cc1 | -4.43
S=c1[nH]nc(Cc2ccccc2)n1Cc1ccco1 | -3.36
CCn1cc(C(=O)N(C)CC(OC)OC)c(=O)c2cc(S(=O)(=O)N3CCOCC3)ccc21 | 16.1
c1ccc(-c2ccc(Oc3cc(N4CCOCC4)nc(-c4ccccc4)n3)cc2)cc1 | 12.3
CCc1ccc(-n2cc(-c3ccc([N+](=O)[O-])cc3)[nH]c2=S)cc1 | 10.7
CC(=O)Nc1cccc(C2=CC(c3ccco3)n3ncnc3N2)c1 (stereo not drawn) | 9.29
O=C(CCc1ccccc1)N/N=C\C1CC=CCC1 (stereo not drawn) | 8.53
O=C(CSc1nnc(-c2ccco2)o1)c1ccc[nH]1 | 12.4
Cc1nn(-c2ccccc2)c(N2CCCC2)c1/C=C1\N=C(c2ccccc2)OC1=O | 10.1
COc1ccccc1-n1c(SCC(=O)Nc2cc(C)on2)nc2c([nH]c3ccccc32)c1=O | 6.7
O=c1c2ccccc2nc2n1C(CSc1ccccc1)CS2 (stereo not drawn) | 10.1
CCc1ccccc1N(C(=O)c1ccco1)C(C(=O)NC1CCCC1)c1cccnc1 (stereo not drawn) | 3.5
CCCCCC(=O)Nc1cccc(C2=NOC3(C2)C[C@@H](C(N)=O)N(C(=O)Cc2ccc([N+](=O)[O-])cc2)C3)c1 (stereo partly drawn) | -25
CCc1ccc(NC(=O)CC2C(=O)NCCN2C(=O)c2ccccc2OC)cc1 (stereo not drawn) | 15.8
O=C(CCN1C(=O)c2ccccc2C1=O)Nc1cccnc1 | -1.64
Nc1c(C(=O)[O-])sc2nc(-c3ccccc3)cc(-c3ccc(Cl)cc3)c12 | 16.3
